Data on 21 variants can be found in the supplement of paper PMC7125110.

± gives the standard error. For some assays here: This sample is rich in variants without activity.

B1: glmS ribozyme (parent)
chain: AUAAAAGCGCCAGAACUACAGAAAUGUAGUUGACGAGGAGGAGGUUUAUCGAAUUUUCGGCGGAUGCCUCCAAA

Common to all, as to conditions: with glucosamine-6-phosphate
Variants of B1 are the subject of data set [1]. Nature of the data set: self-cleavage kobs at 40 uM GlcN6P; higher = faster cleavage; RNA array. The gist of the method:
(§1)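 Weighted Michaelis–Menten fits across concentrations supplied kcat and KM, based on kobs from one- or two-exponential decay fits to normalised per-tile medians. The data came from barcoded ribozyme variants transcribed in situ by E. coli RNA polymerase on sequenced MiSeq chips and tracked at 37 °C by a hybridised Cy3 probe. Glucosamine-6-phosphate (40 μM to 10 mM) in HEPES/KCl/Mg(OAc)2 buffer was flowed in.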

Variants of B1 are the subject of data set [2]. Description: self-cleavage kobs at 640 uM GlcN6P; higher = faster cleavage; RNA array. The method in brief: as §1
The variants in data set [3] derive from B1. Nature of the data set: self-cleavage kobs at 160 uM GlcN6P; higher = faster cleavage; RNA array. The gist of the method: as §1
The variants in data set [4] derive from B1. Description: self-cleavage kobs at 10000 uM GlcN6P; higher = faster cleavage; RNA array. The gist of the method: as §1
In data set [5] the parent is B1. Nature of the data set: self-cleavage kobs at 2500 uM GlcN6P; higher = faster cleavage; RNA array. The method in brief: as §1

On to AUAAAAGCGCCAGAAGUACAGAAAUGUAGUUGACAAGGAGGAGGUUUAUCGAAUUUUCGGCGGAUGCCUCCAAA, for which, in the data set with glucosamine-6-phosphate [1], the “self-cleavage kobs at 40 uM GlcN6P” value is below 1e-05 s⁻¹. The “self-cleavage kobs at 640 uM GlcN6P” value with glucosamine-6-phosphate [2] is below 1e-05 s⁻¹. The “self-cleavage kobs at 160 uM GlcN6P” value with glucosamine-6-phosphate [3] is below 1e-05 s⁻¹. Moreover, the “self-cleavage kobs at 10000 uM GlcN6P” value in the data set with glucosamine-6-phosphate [4] is below 1e-05 s⁻¹.

Regarding AUAAAAGCGCCAGAAUUACAGAAAUGUAGUUGACGCGGAGGGGGUCUAUCGAAUUUUCGGCGGAUGCCUCCAAA, the “self-cleavage kobs at 40 uM GlcN6P” value with glucosamine-6-phosphate [1] was below 1e-05 s⁻¹. Moreover, the “self-cleavage kobs at 10000 uM GlcN6P” value with glucosamine-6-phosphate [4] is below 1e-05 s⁻¹.

On to AUAAAAGCGCCAGAAUUACAGAAAUGUAGUUGACGAGGAGUAGGUUUAUCGAAUUUUCGGCGGAUGUCUCCAAA, for which the “self-cleavage kobs at 40 uM GlcN6P” value in the data set with glucosamine-6-phosphate [1] was below 1e-05 s⁻¹.

As to AUAAAAGCGCCAGAAUUACAGAAAUGUAGUUGAUGAGGAGGAGGUUUAUCGAAUUUUCGGCGGUGGCCUCUAAA, in the data set with glucosamine-6-phosphate [1], the “self-cleavage kobs at 40 uM GlcN6P” value was below 1e-05 s⁻¹. In the data set with glucosamine-6-phosphate [4], the “self-cleavage kobs at 10000 uM GlcN6P” value was below 1e-05 s⁻¹.

Consider AUAAAAGCGCCAGAAGUACAGAAAUGUAGUUGACGAGGAGGAGGUUAAUCGAAUUUUCGGCGGAUGCCUCCAAA, for which, in the data set with glucosamine-6-phosphate [1], the “self-cleavage kobs at 40 uM GlcN6P” value is 6.21e-05 ± 9.9e-06 s⁻¹. Further, in the data set with glucosamine-6-phosphate [3], the “self-cleavage kobs at 160 uM GlcN6P” value was 0.00027 ± 3.9e-05 s⁻¹.

For the variant AUAAAAGCGCCAGAAGUACAGAAAUGUAGUUGACGAGGAGGAGGUUUAUCGAAUUUUCGGCGCAUGCCUCCAAA, the “self-cleavage kobs at 40 uM GlcN6P” value with glucosamine-6-phosphate [1] was below 1e-05 s⁻¹. The “self-cleavage kobs at 640 uM GlcN6P” value in the data set with glucosamine-6-phosphate [2] is below 1e-05 s⁻¹. For the same variant, the “self-cleavage kobs at 10000 uM GlcN6P” value with glucosamine-6-phosphate [4] is below 1e-05 s⁻¹.

For the variant AUAAAAGCGCCAGAAGUACAGAAAUGUAGUUGACGAGGAGGAGGUUUAUCCAAUUUUCGGCGGAUGCCUCCAAA, the “self-cleavage kobs at 40 uM GlcN6P” value with glucosamine-6-phosphate [1] is below 1e-05 s⁻¹.

On to AUAAAAGCGCCAGAAGUACAGAAAUGUAGUUGAAGAGGAGGAGGUUUAUCGAAUUUUCGGCGGAUGCCUCAAAA, for which the “self-cleavage kobs at 40 uM GlcN6P” value with glucosamine-6-phosphate [1] was below 1e-05 s⁻¹. Moreover, the “self-cleavage kobs at 2500 uM GlcN6P” value with glucosamine-6-phosphate [5] is below 1e-05 s⁻¹.

With AUAAAAGCGCCAGAAGUACAGAAAUGUAGUUGACGAGCAGGAGGGUUAUCGAAUUUUCGGCGGAUGCCUCCAAA, the “self-cleavage kobs at 40 uM GlcN6P” value with glucosamine-6-phosphate [1] is below 1e-05 s⁻¹.

AUAAAAGCGCCAGAAGUACAGAAAUGUAGUUGACAAGGAGGUGGUUUAUCGAAUUUUCGGCGGAUGCCUCCAAA: the “self-cleavage kobs at 40 uM GlcN6P” value with glucosamine-6-phosphate [1] was below 1e-05 s⁻¹. The “self-cleavage kobs at 10000 uM GlcN6P” value in the data set with glucosamine-6-phosphate [4] was below 1e-05 s⁻¹.

Consider AUAAAAGCGCCAGAAUUACAGAAAUGUAGUUGAUGAUGAGGAGGUUUAUCGAAUUUUCGGCGGAUGCCUCCAAA, for which the “self-cleavage kobs at 40 uM GlcN6P” value with glucosamine-6-phosphate [1] is below 1e-05 s⁻¹.

Turning to AUAAAAGCGCCAGAAGUACAGAAAUGUAGUUGACGAGGAGGAGUUUUAUCGAAUUUUGGGCGGAUACCUCCAAA, the “self-cleavage kobs at 40 uM GlcN6P” value with glucosamine-6-phosphate [1] was below 1e-05 s⁻¹.

On to AUAAAAGCGCCAGAAUUACAGAAAUGUAGUUUACGAGGAGGAGGUUUUUCGAAUGUUCGGCGGAUGCCUCCAAA, for which, in the data set with glucosamine-6-phosphate [1], the “self-cleavage kobs at 40 uM GlcN6P” value is below 1e-05 s⁻¹.

With AUAAAAGCGCCAGAAUUACAGAAAUGUAGUUGACGAGGAGGAGGUUUAUCGAAUUUUCGCCGGAUGACUCCAAA, in the data set with glucosamine-6-phosphate [1], the “self-cleavage kobs at 40 uM GlcN6P” value is below 1e-05 s⁻¹.

For AUAAAAGCGCCAGAAUUACAGAAAUGUAGUUGACGAGGAGGAGGUUUAUCGAAUUUUCGGCAGAUGCCUCCAAA, in the data set with glucosamine-6-phosphate [1], the “self-cleavage kobs at 40 uM GlcN6P” value is below 1e-05 s⁻¹. In addition, the “self-cleavage kobs at 2500 uM GlcN6P” value with glucosamine-6-phosphate [5] was below 1e-05 s⁻¹. Moreover, the “self-cleavage kobs at 10000 uM GlcN6P” value in the data set with glucosamine-6-phosphate [4] was below 1e-05 s⁻¹.

On to AUAAAAGCGCCAGAAGUACAGAAAUGUAGUUGACUAGGAGGAGGUUUAUCGAAUUUUCGGCGGUUGCCUCCAAA, for which, in the data set with glucosamine-6-phosphate [1], the “self-cleavage kobs at 40 uM GlcN6P” value is below 1e-05 s⁻¹.

Regarding AUAAAAGCGCCAGAAGUACAGAAAUGUAGUUGACGAGGAGGAGGUUUAUCGAAUUUUCGGCGGAUGCCUCUAAA, the “self-cleavage kobs at 40 uM GlcN6P” value with glucosamine-6-phosphate [1] was found to be 0.000132 ± 1.8e-05 s⁻¹. The “self-cleavage kobs at 640 uM GlcN6P” value in the data set with glucosamine-6-phosphate [2] was 0.000865 ± 0.00012 s⁻¹. In addition, in the data set with glucosamine-6-phosphate [3], the “self-cleavage kobs at 160 uM GlcN6P” value was found to be 0.000323 ± 5.6e-05 s⁻¹.

In the case of AUAAAAGCGCCAGAAGUACAGAAAUGUAGUUGACGAGGAGGAGGUUUACCGAAUUUUCUGCGGAUGCCUCCAAA, the “self-cleavage kobs at 40 uM GlcN6P” value in the data set with glucosamine-6-phosphate [1] was below 1e-05 s⁻¹. Further, in the data set with glucosamine-6-phosphate [4], the “self-cleavage kobs at 10000 uM GlcN6P” value was below 1e-05 s⁻¹.

As to AUAAAAGCGCCAGAAGUACAGAAAUGUAGUUGACGAGGAGGAGGUUUAACGAAUUUUCGGCGGUUCCCUCCAAA, the “self-cleavage kobs at 40 uM GlcN6P” value in the data set with glucosamine-6-phosphate [1] is below 1e-05 s⁻¹.

For AUAAAAGCGCCAGAAUUACAGAAAUGUAGUUGACGAGGAUGAGGUUUAUCGAAUUUUCGCCGGAUGCCUCCAAA, in the data set with glucosamine-6-phosphate [1], the “self-cleavage kobs at 40 uM GlcN6P” value is below 1e-05 s⁻¹.

For AUAAAAGCGCCAGAAUUACAGAAAUGUAGUUGACGAGUAGGAGGUUUAUCGAAUUUUCGGCGGAUGCCUCCAAA, in the data set with glucosamine-6-phosphate [1], the “self-cleavage kobs at 40 uM GlcN6P” value is below 1e-05 s⁻¹. In addition, the “self-cleavage kobs at 640 uM GlcN6P” value with glucosamine-6-phosphate [2] was below 1e-05 s⁻¹. Further, the “self-cleavage kobs at 10000 uM GlcN6P” value in the data set with glucosamine-6-phosphate [4] was below 1e-05 s⁻¹.
